Results: the supplement of paper PMC3334620
Over roughly 33,000 sequences, “E-score (-0.5 to 0.5)” has its median near -0.011; the highest 2% begin near 0.28. Some of the results follow.

Biological target: T1, Gcr1 (UniProt P07261)
T1 sequence: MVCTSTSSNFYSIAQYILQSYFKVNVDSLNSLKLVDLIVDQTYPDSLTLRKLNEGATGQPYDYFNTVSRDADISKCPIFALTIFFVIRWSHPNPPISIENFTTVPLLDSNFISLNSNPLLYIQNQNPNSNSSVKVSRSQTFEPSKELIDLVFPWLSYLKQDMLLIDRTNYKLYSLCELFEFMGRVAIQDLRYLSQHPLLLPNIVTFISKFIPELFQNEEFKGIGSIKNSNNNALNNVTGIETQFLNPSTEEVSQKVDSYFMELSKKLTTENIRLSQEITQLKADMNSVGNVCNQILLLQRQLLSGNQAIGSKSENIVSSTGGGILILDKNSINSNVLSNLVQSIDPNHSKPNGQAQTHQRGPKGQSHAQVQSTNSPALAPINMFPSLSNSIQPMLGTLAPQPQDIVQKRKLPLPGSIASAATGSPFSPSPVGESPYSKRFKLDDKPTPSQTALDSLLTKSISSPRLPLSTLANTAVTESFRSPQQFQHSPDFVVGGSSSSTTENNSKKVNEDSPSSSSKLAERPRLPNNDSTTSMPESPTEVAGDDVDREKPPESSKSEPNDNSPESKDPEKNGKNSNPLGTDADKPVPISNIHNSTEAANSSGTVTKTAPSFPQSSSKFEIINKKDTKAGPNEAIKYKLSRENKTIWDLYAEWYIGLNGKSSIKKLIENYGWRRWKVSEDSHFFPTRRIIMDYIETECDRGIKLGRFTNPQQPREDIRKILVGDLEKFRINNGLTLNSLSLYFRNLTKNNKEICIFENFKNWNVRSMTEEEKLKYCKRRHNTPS
Assay: PBM E-score (8-mer binding enrichment) (E-score (-0.5 to 0.5)); higher = stronger / more preferred TF binding; most listed sequences are background and not binding sites
Conditions: protein concentration: 100 nM; construct: GST-full length
Experimental: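 Universal 'all 10-mer' protein binding microarrays (Agilent AMADID 015681) probed with GST-tagged S. cerevisiae TFs (full-length or DBD) made by in vitro transcription/translation (PURExpress), about 100-200 nM. Bound TF was detected with fluorescent anti-GST. Each ungapped 8-mer (which stands for itself and its reverse complement) is scored by the PBM enrichment score (E-score), a modified Wilcoxon-Mann-Whitney statistic from -0.5 to +0.5, computed with the Universal PBM Analysis Suite. Scale: above 0.35 generally sequence-specific binding.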

Sequence | PBM E-score
AATGGTGA | -0.0677
AGAAATAA | 0.132
CCCACCGG | -0.0366
GTGGATGA | -0.123
ACATGCAT | -0.0948
AGAAGTCG | 0.271
CATGTCTA | -0.207
GTGGGCTA | -0.0188
ATCCGGAG | 0.129
CGCCTGTA | 0.0857
AATAAATG | -0.0631
AAACAATG | 0.0177
GCGCAGAA | 0.0232
AAGTATCT | 0.113
GGCTGCAC | -0.115
GGCATTAA | 0.0673
GATGCTTA | 0.151
AGTCAACC | -0.181
GGAGGTGA | 0.093
TCCATCAA | -0.0209
AAACCTTG | -0.0795
ATGTTTAC | 0.044
CACGTCAG | -0.0814
ATAACTAA | -0.00835
CGTAGGAG | -0.176

Sequence | PBM E-score
ACTGGTCC | -0.314
GGGATATA | -0.108
AGCCGGGC | -0.0478
GTTGGGAA | 0.0566
GAACAGAC | -0.104
AGCAGGAT | 0.0541
ACCCCCGC | -0.104
ACATTCGA | -0.114
ATAATAAT | 0.0664
CGCTCAAC | -0.0355
ATCATAAG | 0.0563
TAGGCCAA | -0.255
AGCCCCGA | -0.108
GAGCAGGC | -0.198
GGTATAGA | 0.112
CGGTGTAA | 0.00963
AAAGTATT | -0.00522
CACGCGCC | 0.119
ATTCGATC | -0.145
GACAGGCA | 0.108
ACTGAAGT | 0.0283
GTGGGTAA | -0.0908
ACCATATA | 0.126
CGACTGCG | -0.0439
GGGGTGCA | 0.0288

Sequence | PBM E-score
CGTGGCCC | -0.182
AATCTCGA | 0.0433
CGGATAAG | -0.0314
GCAATCCA | 0.0482
GAAACTCA | 0.101
AAGAGCGA | -0.103
ACCAAATG | 0.225
ACCCTAGT | -0.0547
CGAAACAA | -0.0129
GTCATGAC | -0.172
GCAACAGC | -0.0432
CGGGAGTA | -0.00887
AATTTGAT | -0.0357
CGTCGCTC | -0.148
ATTTCGAC | -0.0391
GGGCCCAC | 0.193
ACCGCTCA | -0.127
CCCCAATC | -0.035
TATCGGCA | 0.091
ACAACCGC | 0.0429
TTCAGCAA | -0.0395
ACTCGGAA | 0.166
ATGTGATG | -0.0994
CCCCACAC | 0.108
CCCCTTTC | 0.125

Sequence | PBM E-score
CGCGGCGC | 0.217
ACATAGAT | -0.117
CAAGAGAC | -0.203
ATCGCTGA | -0.094
GGAGAAAC | -0.217
TCACCGGA | 0.175
TCGGCCGA | -0.121
TAGCTACA | -0.0125
TAGCGAAA | -0.143
ACAGCTGT | -0.0809
ATCAAAGC | -0.00302
GTAACTCA | -0.0907
GAGACGCC | 0.234
AATGGTAT | 0.0672
AGACACGC | -0.0398
CCTCCTCA | -0.0421
AACTGAGT | -0.0972
AGCCCAGG | -0.148
GACTTGTA | 0.14
TCCAGACA | 0.149
AAAAAGGC | 0.00938
ACCCATAC | 0.0568
ACTGCCCT | -0.195
AAAGTGCA | -0.0249
AAGGAGGG | -0.0943

Sequence | PBM E-score
CTACCTCC | -0.0336
ACACTGCG | 0.0668
CAAACGGA | -0.049
ACAAGCTA | -0.0171
ACGAGCCG | -0.0911
CGACGGCC | -0.389
TCTTATCA | 0.232
AATGTTTA | 0.0924
CGATTTAC | -0.039
ATTACCCA | -0.115
ACTAGGTC | -0.126
GATCGCCC | -0.106
AAAATTTC | 0.0607
ACGTCAAT | -0.0602
CACCGCGA | -0.0743
ATGCAGCA | 0.0519
CAACGGTG | -0.0872
CAACTATA | 0.103
ACCGTCCA | 0.0563
AGGAATTC | 0.261
AAAACGCT | -0.0686
TGAATTAA | 0.0255
AGATTGGG | 0.131
CCTTCACC | -0.0651
ACGGGGTG | -0.00575

Sequence | PBM E-score
CTTCTTAA | 0.118
AAATGCTC | 0.181
AGGGCGCG | 0.194
AGCAATTC | -0.153
GATGAAAA | 0.00281
CTTCAACA | 0.0874
CCTCAGTC | -0.0922
AAAAAAAG | 0.165
AAAACACA | 0.0416
AGGAGCCC | 0.294
AAGTCGAC | -0.16
AACGGTCG | -0.161
CCTCGGCG | 0.0644
TGGGCTAA | -0.175
ATTCCATA | 0.0655
CCACCATC | 0.0892
CGCCCGAA | 0.166
AAACTCAG | -0.0351
GCCCCGTA | -0.0324
GGCCACTA | 0.248
CAACCCAA | 0.00025
TGCCCACA | -0.0941
GGTTGGAA | 0.183
ACCAGGCT | -0.00947
AGTCGCAG | 0.156

Sequence | PBM E-score
TCCTACAA | 0.0583
AAGCACGC | 0.0992
GACCTATC | 0.0761
CATGAGCG | -0.0118
GCCCTAGA | -0.064
AATAAACT | 0.105
GAAAGTTA | -0.181
ACGTTGTC | -0.0253
CGAGACAG | -0.0925
ATGAGTAG | 0.103
ACATCAGT | -0.0797
ATGCGGGC | 0.19
CGGTGTTA | 0.0269
CAAGAAAC | 0.0293
CCCCCCGA | -0.252
ATGGTCCG | 0.0284
GTCCTGCA | 0.0582
ACATTTCG | 0.00397
CGTACAAC | -0.152
ATGCACGC | -0.072
TAGGAGGA | -0.136
CCCTGGCA | -0.00029
ACCTCAAA | 0.0958
CGGGAAGC | 0.317
GGAACTAC | -0.0927

Sequence | PBM E-score
GAAAAACA | 0.112
CACCCGCC | -0.0173
CAGTGTAG | 0.0981
ATAACCTC | -0.0967
ATAGTATG | -0.0207
AGGGTGGA | -0.289
ACTTACGA | 0.0669
CCCCCGCC | 0.0264
GACACAGC | -0.132
GACGAGTA | -0.0843
AGAGTTAT | -0.0127
CTTTTAGA | 0.122
CCAAGTAA | 0.0134
GTGCCCAC | 0.146
AACACCCC | -0.013
GCTTTGCA | -0.15
CTGGCGCA | -0.119
CTTACGGC | -0.137
CCGTCCTC | -0.16
AACCTTTA | -0.0342
AAACCGGA | 0.194
TCCAGGCA | 0.0543
AGAACGAG | -0.167
CCATCATC | -0.154
AACGCTAG | -0.224

Sequence | PBM E-score
ACGTCTCT | 0.0766
CGATGTCA | -0.017
ACCGGGTA | 0.0831
AAATATCT | -0.073
CAGCATGA | -0.133
AAGACACA | 0.0703
GTCCCGAA | 0.024
CGTCCAAC | 0.176
CTAGGCTC | -0.0702
ACCGCGTG | -0.0875
ATATCAAC | 0.0466
GCTCACAA | -0.0857
ATATATAT | 0.0382
CTTTTCTC | -0.0229
ACTCTAGC | 0.0304
CTGTGTCC | -0.172
ACCGTCTA | 0.12
AACACGCT | -0.0337
AATCATAC | 0.00576
